Data taken from PubChem BioAssay AID463173 (ICCB-Longwood Screening Facility, Harvard Medical School, 2010).
Among all 52,000 compounds or so, about 4,300 (8.3%) were called active. No stated cut-off is given here; in the data, active means survival mostly below about 52% (no sharp cut-off); inactive means mostly above about 56%. Some of the results follow.

system: DeltatarO mutant; test: S. aureus survival, RN4220 and DeltatarO strains – OD600, teichoic acid synthesis inhibitors, primary screen (AID 463173); conditions: S. aureus RN4220 wild type/DeltatarO growth, OD600, 18 h, active compounds read low, screened at 18.75 µg/mL (by protocol)

Structure (SMILES) | survival
CCOCCCN(C(=O)Nc1ccc(Cl)cc1)C1CCN(C(C)=O)CC1 | inactive: 83%
O=C(COc1ccc(Cl)cc1)Nc1nnc2n1CCS2 | inactive: 124%
COc1cc(OC)cc(-c2nc(-c3cccc(C)c3)no2)c1 | active: -3%
Cc1cc(-c2ccccc2)n2ncc(C#N)c2n1 | inactive: 96%
COc1ccc(N2CCN(C(CNC(=O)C(=O)NCCc3ccccc3)c3cccnc3)CC2)cc1 (stereo unspecified) | inactive: 61%
COc1ccc(C)cc1NC(=O)NCc1cccn1Cc1ccccc1 | inactive: 77%
COc1ccccc1NC(=O)CN(C)S(=O)(=O)c1ccc2c(c1)c(=O)n(C)c(=O)n2C | inactive: 85%
O=C(NCc1ccccc1)c1ccc2nc(CCc3ccccc3)oc2c1 | active: 0%
Cc1ccc(CCNC(=O)NCc2noc3ccccc23)cc1 | inactive: 102%
Cc1ccc(CN2CCC(CNC(=O)Nc3cccc(Cl)c3C)C2)cc1 (stereo unspecified) | inactive: 75%
CC(C)(C)c1ccc(C(=O)Nc2cc(-c3nc4ccccc4o3)ccc2Cl)cc1 | active: 13%
CCc1ccccc1NC(=O)c1ccc2c(c1)CCN2S(C)(=O)=O | inactive: 69%
CCc1ccccc1NC(=O)C1CCN(S(=O)(=O)c2ccc3[nH]c(=O)ccc3c2)CC1 | inactive: 118%
COc1ccc(Cc2nc3ccc(C(=O)NCc4ccc(OC)cc4OC)cc3o2)cc1 | inactive: 75%
Cc1noc(C)c1S(=O)(=O)N1CCC(C(=O)Nc2ccc(Br)cc2)CC1 | inactive: 90%
COc1ccc2nc(Cl)c(CNCCN(C)C)c(N3CCCCC3)c2c1 | inactive: 94%
COc1ccc(CNC(=O)c2nc(Cn3nc(C)c(Br)c3C)no2)cc1OC | inactive: 82%
COc1cc(NC(=O)c2sc3nc4n(c(=O)c3c2C)CCCCC4)cc(OC)c1OC | active: 42%
CC(C)c1ccc(NC(=O)c2ccc(F)c(S(=O)(=O)N3CCCCCC3)c2)cc1 | inactive: 79%
CN1/C(=C2/SC(=S)N(N)C2=O)Sc2ccccc21 | inactive: 94%
COc1ccc(S(=O)(=O)NCCc2csc3nc(-c4ccc(OC)c(OC)c4)nn23)cc1C | inactive: 92%
Cn1c(SCC(=O)NC(C)(C)C)nnc1-c1ccccc1 | inactive: 92%
O=C1CCSc2ccc(S(=O)(=O)Nc3ccc(Cl)c(C(F)(F)F)c3)cc2N1 | inactive: 72%

Structure (SMILES) | survival
COc1ccc(-c2nc(C(=O)Nc3ccc(C(C)=O)cc3)nn2-c2cccc(Cl)c2)cc1 | active: 46%
COc1ccc(N2CCN(S(=O)(=O)c3c(C)[nH]c(=O)[nH]c3=O)CC2)cc1 | inactive: 73%
CCN(C(=O)c1cc2cc3ccc(OC)cc3nc2o1)c1cccc(C)c1 | active: 6%
O=S(=O)(NC1CC1)c1ccc(S(=O)(=O)N2CCCc3ccccc32)cc1 | inactive: 51%
CC1CCN(c2nn3c(=O)c(C(=O)NCCCOC(C)C)cnc3s2)CC1 | inactive: 124%
Cc1c(C(=O)OCc2ccccc2)[nH]c2c1C(=O)CC(c1ccc(C(C)(C)C)cc1)C2 (stereo unspecified) | inactive: 91%
CCc1cccc(NC(=O)c2cc3c(=O)n(Cc4ccccc4)ccc3nc2C)c1 | inactive: 71%
Cc1ccc(CN2CCCn3nc(C(=O)NCCc4ccccc4C)cc3C2=O)cc1 | inactive: 87%
COc1cc(C(=O)Nc2ccccc2-c2nc(-c3ccccc3)no2)cc(OC)c1OC | inactive: 66%
CC(C)c1ccc(NC(=O)C2CCN(C(=O)c3ccc(F)cc3)CC2)cc1 | inactive: 61%
CC(=O)c1cccc(NC(=O)C2CCN(S(=O)(=O)c3ccc4c(c3)CCCN4C(C)=O)CC2)c1 | inactive: 101%
Cc1ccc(-c2nc(C)c(CCNC(=O)c3cccs3)s2)cc1 | inactive: 91%
NC(=O)CSc1nnc2c(n1)[nH]c1ccc(Cl)cc12 | inactive: 103%
CC(C)(C)C1CCc2c(sc(NC(=O)c3cc4ccccc4c(=O)o3)c2C(N)=O)C1 (stereo unspecified) | active: 44%
CCCCCOc1ccc(/C=C/C(=O)Nc2sc(C)c(C)c2C(=O)OCC)cc1OC | inactive: 117%
COc1ccccc1NC(=O)Cn1cc(S(=O)(=O)Cc2ccccc2)c2ccccc21 | inactive: 76%
CC(C)NC(=O)C1CC(c2ccccc2O)=NO1 (stereo unspecified) | inactive: 93%
CCN(CC)c1nc2ccccc2nc1C(=O)Nc1ccc(C(C)=O)cc1 | inactive: 78%
Cc1ccc(C)c(NC(=O)CN(C)S(=O)(=O)c2cccc3nsnc23)c1 | inactive: 88%
Cc1ccc(-n2nc(C(=O)Nc3ccc(F)cc3F)c3c4ccccc4n(C)c3c2=O)cc1 | inactive: 91%
Cc1cccc(N(C)c2nc3ccc(C(=O)c4ccccc4)cc3n3c(C)nnc23)c1 | inactive: 115%
COc1ccc(Cc2nc3ccc(C(=O)NCc4ccccc4C)cc3o2)cc1 | inactive: 95%
COc1ccc(NC(=O)CN2C(=O)CC(c3ccc(C)c(C)c3)=Nc3ccccc32)cc1OC | inactive: 67%

Structure (SMILES) | survival
CCC(CC)C(=O)Nc1ccc2nc(SCC(=O)N3CCCC3)sc2c1 | inactive: 99%
CCc1cccc(C)c1NC(=O)c1cc(S(=O)(=O)N(Cc2ccc(C(=O)OC)cc2)Cc2ccc(OC)c(OC)c2)ccc1F | inactive: 76%
Cc1ccccc1Oc1nc2ccccn2c(=O)c1/C=C(\C#N)c1nc2ccccc2[nH]1 | inactive: 72%
CCN(CC)CCNC(=O)Cn1ncc2c3ccccc3n(Cc3ccc(Cl)cc3)c2c1=O | inactive: 137%
Cc1ccc(-c2csc(-c3nc(-c4ccc(Br)s4)cs3)n2)cc1 | inactive: 82%
COc1ccc(NC(=O)Cn2nnc(C(=O)NCc3cccs3)c2N)cc1 | inactive: 95%
Cc1ccc(NC(=O)CSc2nc(=O)n(Cc3cccnc3)c3c2CCC3)cc1F | inactive: 67%
Cn1c(=O)[nH]c(=O)c2c1nc(N1CCOCC1)n2Cc1ccccc1 | inactive: 167%
CCOC(=O)Cc1ccc(NC(=O)Nc2c[nH]c(=O)[nH]c2=O)cc1 | inactive: 89%
CCc1cccc(NC(=O)CCc2nc3cccnc3n2Cc2ccc(OC)cc2)c1 | inactive: 69%
COc1cccc(-c2cc(C#N)on2)c1OC | inactive: 78%
NC(=S)C(=S)N1CCOCC1 | inactive: 110%
CC(C)CCNC(=O)CN1C(=O)CSc2ccc(S(=O)(=O)N3CCC(C)CC3)cc21 | inactive: 72%
COc1cccc(C(=O)N(Cc2cccnc2)Cc2cc3cc(C)cc(C)c3[nH]c2=O)c1 | inactive: 81%
Cc1ccc2nc(-c3cccs3)c(Nc3c(C)cccc3C)n2c1 | active: 35%
CN(C)c1ccc(/C=C/c2nc(-c3ccccc3O)n(-c3ccccc3)n2)cc1 | active: 42%
O=C(Nc1cccc(NC(=O)C2CCCO2)c1)c1ccco1 (stereo unspecified) | inactive: 103%
Cc1c(C(=O)NCc2ccc(F)cc2)oc2ccc(S(=O)(=O)N3CCCCC3)cc12 | inactive: 82%
CCOC(=O)C1CCCN(c2nc3c(S(=O)(=O)c4ccc(CC)cc4)nnn3c3ccsc23)C1 (stereo unspecified) | inactive: 51%
CCCCc1noc(-c2ccc(OC(=O)c3ccccc3)cc2)n1 | inactive: 93%
Cc1ccc2c(c1)c1c(c(=O)n(-c3cccc(Cl)c3)c(=O)n1CC(=O)NCC1CCCO1)n2C (stereo unspecified) | inactive: 72%
COc1ccc(NC(=O)[C@H]2O[C@@H]3OC(C)(C)O[C@@H]3[C@H]3OC(C)(C)O[C@H]32)c(OC)c1 | inactive: 91%
Cc1c(C)n(CC(O)CNCc2ccco2)c2ccccc12 (stereo unspecified) | inactive: 90%

Structure (SMILES) | survival
COc1cc(C(=O)NCC(c2ccc3c(c2)OCO3)N2CCOCC2)cc(OC)c1OC (stereo unspecified) | inactive: 57%
CCc1cccc(NC(=O)C2CCCN(c3ncnc4onc(-c5ccc(F)cc5)c34)C2)c1 (stereo unspecified) | inactive: 95%
COc1ccc(-c2noc(CSCC(=O)Nc3cc(OC)c(OC)c(OC)c3)n2)cc1OC | inactive: 96%
CCn1cc(C(=O)OCC(=O)Nc2ccc(C)c(Cl)c2)c(=O)c2ccc(C)nc21 | active: 63%
CCc1nn(C)c(N)c1C | inactive: 83%
CCN1CCSc2ccc(C(=O)NCc3ccc(OC(C)C)cc3)cc21 | inactive: 62%
O=C(N/C(=C\c1ccc(O)cc1)C(=O)N1CCCCC1)c1ccccc1 | inactive: 79%
CCOc1ccc(-c2cc3c(=O)n(CC(=O)NCc4ccc(C)cc4)ccn3n2)cc1 | inactive: 99%
CCOc1ccc(NC(=O)CCC(=O)Nc2cc(OC)c(NC(=O)c3ccco3)cc2OC)cc1 | inactive: 76%
CN(C(=O)CCc1nc(-c2ccccc2F)no1)c1ccc(Cl)cc1 | inactive: 56%
O=S(=O)(c1ccc(OC(F)(F)F)cc1)N1CCC(c2nnnn2-c2ccc(F)cc2)CC1 | inactive: 71%
CCCCN1CC(c2nc3ccccc3n2CCCCOc2cc(C)ccc2C)CC1=O (stereo unspecified) | active: 15%
O=C(CS(=O)(=O)c1cccc2nsnc12)Nc1ccccc1Cl | inactive: 71%
COc1ccc(N(Cc2cc3ccccc3[nH]c2=O)C(=O)c2cccc(Cl)c2)cc1 | inactive: 87%
CCOC(=O)Cc1ccc(NC(=O)NCc2c(-n3cccc3)sc3c2CCCC3)cc1 | inactive: 88%
CC(=O)N1c2ccccc2CC1C(=O)N1CCN(c2ccccc2)CC1 (stereo unspecified) | inactive: 101%
CN1CCCC(OC(=O)c2ccc(F)cc2)C1 (stereo unspecified) | inactive: 87%
Cc1ccc(NC(=O)c2c(C)cc(C)nc2SCC(=O)Nc2ccc(Br)cc2)cc1 | active: 40%
Cc1ccc(C(=O)N/C(=C/c2ccccc2)C(=O)NCc2ccco2)cc1 | inactive: 95%
COc1cccc(-n2ccnc2SCC(=O)Nc2c(C)cc(C)cc2C)c1 | inactive: 97%
CCCCNC(=O)c1ccc2c(c1)N(Cc1ccc(F)cc1)C(=O)c1ccccc1S2=O (stereo unspecified) | inactive: 65%
Cc1ccc(NC(=O)/C=C\C(=O)N(c2ccc(C(C)C)cc2)C(C(=O)NCc2ccco2)c2ccc(Cl)cc2)cc1 (stereo unspecified) | inactive: 89%
